# Reference: PMC10668032
# The list shows a part of the results. At the low end of the ranking the order means little.
# Target: SIX1 homeodomain (reference allele) (UniProt Q15475)
# Assay: universal protein binding microarray
# Settings: Universal all-10-mer PBM (8x60K, AMADID 030236), 300 nM GST-tagged protein, Alexa Fluor 488 anti-GST; buffer, salt, pH and temperature not stated; high values mean tight binding; most listed sequences are background and not binding sites; double strand, one strand shown
row,Sequence,binding signal [E-score]
1,CCAATCAA,-0.0789
2,ACGATCCC,0.337
3,AGAAATCT,-0.123
4,ACTTCAGA,-0.133
5,GTGGTGAA,-0.299
6,ATAGTGAA,0.0164
7,GTCAGACA,-0.128
8,AGAACGGG,-0.102
9,GGGAGCCA,-0.189
10,AACGGACG,-0.162
11,GTGCTATA,0.0789
12,ACTATCCA,0.241
13,ACACGGGA,0.101
14,CCTTTAAG,0.033
15,CGTAATGC,-0.0389
16,ACGCCGCA,-0.164
17,CCCACATA,0.058
18,CAAAATGC,-0.165
19,ATCACGAT,0.241
20,ATAGGAAC,-0.0728
21,GCTAAAGC,-0.127
22,CTAAAACA,-0.108
23,CCGATTTA,-0.0568
24,CGAGCTTA,-0.085
25,CGCCACGA,-0.11

row,Sequence,binding signal [E-score]
1,AGGATCGC,0.27
2,ACTATTCG,-0.0957
3,AACTTACG,-0.159
4,AAACGCCT,-0.297
5,CCAGTGGC,-0.096
6,CGGTTAGC,-0.261
7,ATCCGTAC,0.275
8,TATCAACA,0.399
9,CAGCCAGG,-0.0751
10,AATGTCGT,-0.107
11,TCAAGTAA,0.0502
12,CACTAGTC,-0.172
13,CGCCCCTC,-0.0608
14,CCACTAAC,-0.0837
15,CGGTAAAA,-0.0378
16,CTACAAGA,0.0135
17,CATCCAAC,0.0473
18,ACTTCTCT,-0.0682
19,CTTAATCA,0.108
20,AACCTGAT,0.184
21,CAGATTGA,0.219
22,ACCGGAAC,-0.0218
23,ATCGAGTC,-0.0674
24,GTGCCGTA,0.12
25,CGCTTATC,-0.0243

row,Sequence,binding signal [E-score]
1,ATGGCAAA,-0.285
2,AAGTGACT,-0.204
3,CCACTTTA,-0.101
4,ACAGGTGC,-0.0796
5,CGTGCATA,0.103
6,CCCACGAA,-0.0902
7,GTAAAACA,-0.242
8,CATACGTA,0.149
9,AGCTACTG,-0.0748
10,CATCACTA,0.0244
11,AACATGCG,-0.25
12,GTTTCGGA,0.0948
13,AGCGAGGA,0.13
14,AGATGCGG,0.111
15,TATTATCA,0.187
16,CTCGGCAA,-0.18
17,TAGAGACA,-0.0919
18,TAAATGAA,-0.0616
19,CGCGTCAG,-0.0632
20,AGTCAAGA,-0.129
21,GCCGGGGA,0.0776
22,AAGTTGGC,-0.2
23,CCCTGACA,-0.0294
24,CAAACGCC,-0.187
25,CCAAGACA,0.0581

row,Sequence,binding signal [E-score]
1,CATCCGTA,0.168
2,ATCGTGCG,0.155
3,CGCCCTGA,0.146
4,ATAGTCTG,0.125
5,AGCGCCCT,-0.00309
6,CACATTGA,-0.0524
7,CCCGACCA,0.0242
8,ACCAGAAG,-0.0043
9,CCCTGTAG,0.0139
10,TAAACACA,-0.166
11,CGGCGAAG,-0.109
12,CAGTCATC,-0.181
13,ATGACCTG,-0.118
14,ATCGGAGA,0.226
15,TAGCTGCA,-0.198
16,CATTCGCC,-0.166
17,CGAGGAGA,0.035
18,CAGGGATG,0.0159
19,AGAGATTA,0.116
20,AGATCCCC,0.384
21,CGTTCCCC,-0.0149
22,CAAGTCTG,-0.0857
23,GCGTCTAC,0.00749
24,CCATCAAA,-0.119
25,ATAATAAA,0.101

row,Sequence,binding signal [E-score]
1,ATAATTGA,0.00451
2,ATCATCCA,0.275
3,GCATGAGC,-0.0935
4,ACGGCAGG,-0.088
5,CACAATCA,-0.0591
6,CTGCTCGA,-0.024
7,GATGTCCA,-0.121
8,CCGACTTC,-0.167
9,CTGTACCA,-0.0549
10,GGCCAGCA,-0.158
11,AATTACCA,-0.193
12,CATATCAC,0.446
13,AAAAAATT,-0.261
14,AGAAGGCT,-0.0599
15,TCAGAGAA,-0.208
16,CCGGTTCG,0.138
17,CAACCGCC,-0.189
18,CGACACTC,0.177
19,AGCAATGG,-0.0841
20,AGCCTGCC,-0.293
21,ACACTTAC,-0.0206
22,AATAGCAT,0.0424
23,ATTTTTGA,0.0643
24,GTAATGAC,-0.216
25,ACCAAGGT,-0.0621

row,Sequence,binding signal [E-score]
1,ATTGTAAA,-0.107
2,TACACTAA,-0.0209
3,ACGTCTAT,0.0832
4,GTCGACAA,-0.192
5,CGAAGGGA,0.127
6,TAACATCA,-0.0855
7,CTTCTGGC,-0.107
8,GGAACCAC,-0.139
9,AGGGGCGG,0.174
10,GTGGTTTA,-0.0852
11,AAACACCC,0.253
12,CCGGGGAC,-0.0319
13,CCCGGCAA,0.0881
14,AATCAACT,-0.217
15,GTCACACA,-0.0492
16,TAAGGGCA,-0.0646
17,AATCGAGT,-0.0699
18,AACTGCCC,-0.0604
19,AGCACTGC,-0.15
20,AACGCGGG,0.0702
21,ACAACTCT,-0.309
22,ACTCTCGA,-0.089
23,CCAGAGAA,-0.0225
24,CTCAGGGC,0.058
25,CGATACGA,0.398

row,Sequence,binding signal [E-score]
1,TAACGTCA,-0.242
2,ACCCGTGC,-0.0484
3,ACTGCAAG,-0.173
4,GTGCTTTA,-0.0927
5,AGCCACGC,-0.231
6,GCCTTCCA,-0.328
7,CCGCTAGG,-0.0855
8,CAGGGTTA,-0.0346
9,AAGCATGC,-0.306
10,ACAAGGGT,0.0328
11,ACAGCGAA,-0.127
12,AGTACAAA,-0.135
13,CGGCAGGA,-0.232
14,ATTAGGAG,0.0574
15,AGAACAGA,-0.196
16,TAGGTGCA,-0.154
17,AAATGCTG,-0.179
18,ACGGGTTA,-0.103
19,AGGCCTCC,-0.129
20,CCCGAATA,0.0806
21,CAGATACA,0.355
22,GGCTATCA,0.392
